# Measured values reported in article PMC4336329 (PLoS ONE, 2015).
# In all, about 310,000 compounds went through this assay and about 2,200 (0.71%) showed an effect of 50% or more. Effects have a minus sign here. The list shows a part of the results.
# Target: human ether-à-go-go-related gene (hERG) potassium channel (human, UniProt Q12809)
# Test: primary screen, population patch clamp on CHO cells stably expressing hERG
# Chain of human ether-à-go-go-related gene (hERG) potassium channel (Q12809 whole entry, looked up): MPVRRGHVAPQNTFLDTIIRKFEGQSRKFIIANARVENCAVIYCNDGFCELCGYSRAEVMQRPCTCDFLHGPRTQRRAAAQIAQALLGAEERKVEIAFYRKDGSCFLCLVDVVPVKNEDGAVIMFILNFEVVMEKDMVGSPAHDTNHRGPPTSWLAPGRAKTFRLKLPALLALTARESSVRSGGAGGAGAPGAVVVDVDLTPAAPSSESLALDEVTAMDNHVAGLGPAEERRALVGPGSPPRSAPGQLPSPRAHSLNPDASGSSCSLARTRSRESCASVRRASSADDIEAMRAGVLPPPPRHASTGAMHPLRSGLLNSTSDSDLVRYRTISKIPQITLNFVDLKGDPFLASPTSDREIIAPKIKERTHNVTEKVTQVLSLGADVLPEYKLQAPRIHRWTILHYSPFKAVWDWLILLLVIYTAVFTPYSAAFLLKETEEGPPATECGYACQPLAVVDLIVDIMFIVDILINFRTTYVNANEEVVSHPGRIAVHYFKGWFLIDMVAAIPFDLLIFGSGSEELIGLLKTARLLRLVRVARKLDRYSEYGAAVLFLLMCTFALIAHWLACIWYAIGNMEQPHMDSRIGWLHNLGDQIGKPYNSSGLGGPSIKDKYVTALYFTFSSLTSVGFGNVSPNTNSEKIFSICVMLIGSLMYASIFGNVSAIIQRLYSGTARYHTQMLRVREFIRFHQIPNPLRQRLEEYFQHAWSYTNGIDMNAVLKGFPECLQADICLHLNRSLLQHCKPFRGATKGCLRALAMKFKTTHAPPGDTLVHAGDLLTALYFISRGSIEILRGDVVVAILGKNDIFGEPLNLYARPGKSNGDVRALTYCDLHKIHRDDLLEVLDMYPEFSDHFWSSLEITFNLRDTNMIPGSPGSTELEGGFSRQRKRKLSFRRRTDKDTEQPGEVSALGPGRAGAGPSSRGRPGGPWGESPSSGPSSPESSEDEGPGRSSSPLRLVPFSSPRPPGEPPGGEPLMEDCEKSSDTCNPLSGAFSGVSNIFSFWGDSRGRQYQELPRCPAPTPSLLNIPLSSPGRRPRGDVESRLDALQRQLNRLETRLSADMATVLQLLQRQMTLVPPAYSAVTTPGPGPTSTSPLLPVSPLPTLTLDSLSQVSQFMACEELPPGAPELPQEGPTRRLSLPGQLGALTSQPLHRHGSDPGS
row,SMILES,"hERG current change (%, negative = inhibition) at 1uM"
1,COc1ccc2nc(N3CCCC(C(=O)NCCCN4C(C)CCCC4C)C3)sc2c1 (stereo not shown),2.93%
2,CCc1cccc(NC(=O)c2ccc(Cn3c(=O)[nH]c4ccsc4c3=O)cc2)c1,11.6%
3,O=C(NCCCN1CCOCC1)c1cccc(S(=O)(=O)N2CCc3ccccc3C2)c1,5.86%
4,O=C(CSc1ccc2nnc(-c3ccncc3)n2n1)NCC1CCCO1 (stereo not shown),6.96%
5,COc1cc(-n2c(-c3ccccc3)n[nH]c2=S)c(OC)cc1Cl,4.69%
6,Cc1cc(C)c(S(=O)(=O)c2cccc(Br)c2C)c(Cl)n1,13.1%
7,CCNC(=S)Nc1c(C)n(C)n(-c2ccccc2)c1=O,6.26%
8,O=C(CSc1nnc(CNc2ccc(F)cc2)n1Cc1ccccc1)NCc1ccco1,10.2%
9,CC(=O)Nc1ccc(S(=O)(=O)NCc2ccc(C(=O)NCc3ccc4c(c3)OCO4)cc2)cc1,8%
10,CN1OCC2Cn3c(nc4ccccc43)C21 (stereo not shown),16.4%
11,O=C(CSc1nc2ccc(Cl)cc2o1)NCc1ccc2c(c1)OCO2,7.69%
12,Cc1cccc(OCCC(=O)OCc2csc(CC(=O)Nc3ccccc3C)n2)c1,11.6%
13,N#Cc1c(-c2ccccc2)cc(-c2ccccc2)nc1Br,2.9%
14,COc1cc(CN2C(=S)NC(C)(C)CC2(C)O)cc(OC)c1 (stereo not shown),13%
15,COCCNC(=O)Cn1c(=O)n(CCCCCC(=O)NCc2ccc3c(c2)OCO3)c(=O)c2sccc21,3.27%
16,Cc1cc(C)n2c(SC/C(O)=C(\C#N)c3nc4ccccc4[nH]3)nnc2n1,-19.2%
17,CCCCN(c1ccccc1)S(=O)(=O)c1cccc2cccnc12,-0.126%
18,Cc1ccc(C)c(SCC(=O)Nc2ccc(C)c(S(=O)(=O)N3CCOCC3)c2)c1,6.29%
19,O=C(O)CCCC(=O)Nc1ccc(Br)cc1,21.6%
20,CC1CC(C)CN(CCCNC(=O)c2csc3c2CCCCC3)C1 (stereo not shown),-24.6%
21,O=C(NNC(=O)c1ccccc1-n1cccc1)c1ccc(Cl)cc1,10.9%
22,Cn1cc(CNCCCn2ncc3ccccc32)c(-c2ccccc2F)n1,-11.3%

row,SMILES,"hERG current change (%, negative = inhibition) at 1uM"
1,COc1ccccc1-n1c(CNC(=O)c2ccco2)nnc1SCC(=O)Nc1cc(C)ccc1C,3.69%
2,CCOC(=O)C1=C2SCCN2C(=O)C(C#N)C1(C)C (stereo not shown),2.97%
3,O=C(O)c1ccc(COc2ccc3c(c2)CCC3)cc1,15%
4,CC(C)Cc1n[nH]c(=O)c2c1nnn2Cc1ccccc1F,5.15%
5,COc1ccc(C(=O)c2cnc3ccccc3c2-c2ccccc2)cc1,6.04%
6,CCCN(CCC)CCCNC(=O)c1cn(-c2ccc(OC)cc2)c(=O)c2ccccc12,1.46%
7,COc1ccc(CCn2c(=N)c(C(=O)NCCN3CCOCC3)cc3c(=O)n4ccccc4nc32)cc1OC,10.4%
8,COCCNC(=O)CN(Cc1ccco1)C(=O)CCC(=O)Nc1nccs1,5.6%
9,CCOc1ccc(NC(=O)CSc2nnc(C3CC3)n2C)cc1S(=O)(=O)N1CCCCC1,11.7%
10,COCCn1c(=S)[nH]c2cc(C(=O)NCCc3ccccc3)ccc2c1=O,9.53%
11,Cn1cccc1C(=O)OCC(=O)NCc1ccc2c(c1)OCO2,-3%
12,CCN(C(=O)Cc1ccccc1OC)c1nnc(-c2ccncc2)s1,-2.65%
13,Cc1nn(Cc2c(Cl)cccc2Cl)c(C)c1NC(=O)CCCn1nc([N+](=O)[O-])c(Cl)c1C,-6.64%
14,CCN(Cc1nc(-c2ccc(OC)cc2)no1)C(=O)c1ccoc1C,14.9%
15,O=C(NC1CC1)c1cc(-c2ccccn2)nc2ccccc12,-1.15%
16,CCCCc1nc2cc(C(=O)N(C)CCc3cn[nH]c3)ccc2o1,10.6%
17,CCOc1ccc(C(=O)O/N=C(\N)c2ccc([N+](=O)[O-])cc2)cc1OCC,13.3%
18,CC1CCC(N(C(=O)c2csnn2)C(C(=O)NC(C)(C)C)c2cccnc2)CC1 (stereo not shown),-0.468%
19,Cc1ccc(S(=O)(=O)N2CCN(C(=O)CSC(=S)N3CCCC3)CC2)c(C)c1,8.6%
20,CC(C)CCNc1nc(N)c([N+](=O)[O-])c(NC2CCCCC2)n1,7.05%
21,Cc1sc2nc(SCC(=O)NCc3ccco3)n(C)c(=O)c2c1C,-3.55%
22,CS(=O)(=O)N1CCN(c2nc3ccccc3s2)CC1,5.81%

row,SMILES,"hERG current change (%, negative = inhibition) at 1uM"
1,O=C(Nc1ccc(C(=O)NCCCN2CCN(c3ccccc3)CC2)cc1)C1=CSCCO1,5.57%
2,CC(C)(C)C(=O)NC(=S)Nc1ccc(Cc2ccncc2)cc1,16%
3,Cc1ccc(C(=O)OCC(=O)NC(=O)c2cccn2C)cc1[N+](=O)[O-],11.5%
4,CCCn1c(=NC(C)=O)c(C(=O)OCC)cc2c(=O)n3ccccc3nc21,8.09%
5,Cc1[nH]c2ccccc2c1C(=O)NS(=O)(=O)Nc1ccc(Cl)cc1,9.2%
6,CC(C)CN(CC(C)C)C(=O)c1cccc(S(=O)(=O)N2CCc3ccccc32)c1,0.384%
7,COc1ccc(C(NC(C)=O)c2nccc3cc(OC)c(OC)cc23)cc1OC (stereo not shown),14.6%
8,O=C(COc1ccc(NC(=O)c2ccccc2[N+](=O)[O-])cc1)c1ccc(F)cc1,11.5%
9,O=C(Cc1ccc(Cl)cc1)Nc1ccc(Br)cc1,6.68%
10,COc1ccc(-c2cc3c(=O)n(CC(=O)NCc4ccc(C)cc4)ncn3n2)cc1,4.61%
11,N#Cc1c(Sc2ncc(C(F)(F)F)cc2Cl)nsc1C/C=N\OCc1c(F)cccc1Cl,2.01%
12,CC(O)[C@H]1CC[C@H]2[C@@H]3CC[C@H]4C[C@H](O)CC[C@]4(C)[C@H]3[C@H](O)C[C@]12C (stereo partly shown),12.2%
13,C#CCN1C(=O)C2C(C(=O)NC)C3C=CC2(O3)C1C(=O)NCc1ccc(OC)cc1 (stereo not shown),8.8%
14,Cc1ccc(NC(=O)CN2C(=O)S/C(=C/c3ccncc3)C2=O)cc1,9.58%
15,CCCn1nnnc1NCc1cccc(Cl)c1,8.87%
16,COc1oc(-c2ccc(Cl)cc2)nc1C(F)(F)F,8.77%
17,Cc1ccc(S(=O)(=O)N2CCCCC2C(=O)Nc2nncs2)cc1 (stereo not shown),8.1%
18,S=c1[nH]nc(-c2ccccn2)n1/N=C/c1cccc(Cl)c1,13.1%
19,Cc1cccc(CN2CCC(C(=O)Nc3ccc(-n4nc(C)cc4C)cc3)CC2)n1,5.92%
20,Cc1ccc(N(CC(=O)NC(C)C)C(=O)CCC(=O)Nc2nccs2)c(C)c1,12.6%
21,O=S(=O)(c1ccc(Cl)nc1)N1CCc2ccccc21,20.3%
22,CNC(=O)c1cc(C(=O)c2ccc(C(F)(F)F)cc2)c[nH]1,17.4%

row,SMILES,"hERG current change (%, negative = inhibition) at 1uM"
1,Nc1ncc(-n2cncn2)c(-c2ccc(Cl)cc2)n1,14.9%
2,O=C(CCC(=O)OCc1ccc([N+](=O)[O-])cc1Cl)Nc1ccccc1,2.63%
3,O=C(c1ccc(Cl)c(S(=O)(=O)N2CCOCC2)c1)N1CCN(c2ccccn2)CC1,-4.66%
4,O=C(Nc1ccc(S(=O)(=O)NCc2ccccc2)cc1)c1ccc(Br)o1,-10.5%
5,O=C(NCCCn1cccn1)C1CCC(=O)N(Cc2ccccc2F)C1 (stereo not shown),7.05%
6,O=C1OCCC1Sc1nnc(-c2ccc(O)cc2)o1 (stereo not shown),17.1%
7,CS(=O)(=O)N(CC(=O)NCCSC1CCCCC1)c1ccc2c(c1)OCO2,1.66%
8,Cc1ccc(N(C(=O)c2ccco2)C2C=CS(=O)(=O)C2)cc1 (stereo not shown),3.68%
9,COc1ccccc1-c1ccc(C(=O)O)o1,12.7%
10,CC1=NN(C)C(=O)C1Cc1c(F)cccc1Cl (stereo not shown),6.67%
11,Nc1nc2n(n1)C1(CCCCC1)C1=C(CCCC1)N2,-16.4%
12,CSc1ccccc1OCc1cc(C(=O)NCc2ccc(C)s2)no1,14.5%
13,CCN(CC(=O)NCc1ccco1)S(=O)(=O)c1ccc(F)cc1,12.5%
14,COc1ccc(CN2CCCC(N3CCN(c4ccc(OC)cc4)CC3)C2)cc1 (stereo not shown),-4.79%
15,CC(C)C(NS(=O)(=O)c1cccc2nsnc12)C(=O)NC1CCCCC1C (stereo not shown),14.6%
16,CC(=O)N1CCCc2cc(S(=O)(=O)N3CCN(C4CCCCC4)CC3)ccc21,5.2%
17,COc1ccc(CC(=O)Nc2c(C(N)=O)oc3ccccc23)cc1OC,11.6%
18,CCc1cccc(OCC(=O)Nc2cc(S(=O)(=O)N3CCOCC3)ccc2N2CCCC2)c1,15.2%
19,COc1ccccc1/C=N/NC(=O)c1[nH]c(C)c(C(=O)N/N=C/c2ccccc2OC)c1C,12.9%
20,N#Cc1ccc2[nH]c(CO)c(-c3ccccc3)c2c1,-3.83%
21,C=CCn1c(O)c(Cc2ccc(OCC)cc2)c(=O)[nH]c1=O,15.7%
22,Cc1ccc(-c2csc(NC(=O)c3ccccc3F)c2C(=O)O)cc1,15.2%
